# Measured values published in the supplement of paper PMC8728848.
# Some of the results follow.
# B1: PX9961T-pdi-555-33-555 (Parabacteroides distasonis) (protein)
# chain: FDEETAFQSPTLVYVNTVASLYNNMFKIMGNDRHVYDLNTFSSDEAMLPCRIGDWEDGGLWQNIFLHRWGTMNDLTKNSWDFLYEQIGKCNQSVDKLQAFAEEQPDVEYFKVYLEEVRAVRAFFYYELLDLFARVPLVTSSTTPMSEVKQSERSVVFNFVRSELEEALPYLSDNRSNQKGEYYGRITKPVAYMILAKLALNAEVYADDNWTDGNRPAGKNIKFTVDGKEMNAWEATIAYVDKLEALGYKLQGNFSENFAVANETSVENIFTVPMDPVAYPDAKDYNLVRTRHYDHATAYGQSGWNGSCATVKAMNVFKFGTADEDPRCKLTYFTGEVTGPDGKTIYTEWDGQKVPLKYEPNAPKVYMDASDGLLVKTAGARMAKYEFDQNAQDGGNLHGNDCVIFRFADALLMKAEAKIRLGQNGDDEVNQVRNRVGAKPLQNVTLDTLLDERMLELAWEGVRRQDLIRFGKFTEATVDRYVGVKHFASSLDYQEDKTGYTTVFSIYADILSLNPNLTQNPGY
# What was measured:
# Assay in all cases: glycan array binding signal (z-score within array); higher = stronger binding
# Conditions in all cases: glycan notation: IUPAC condensed, linker removed
# [1] = target: GlcNAc(b1-3)Gal(b1-4)GlcNAc(b1-3)Gal(b1-4)GlcNAc(b1-3)GalNAc
# Summary of the method: (§1)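 Glycan array binding is given as a within-array Z-score, which can be read as non-binding when negative. The arrays, 3228 of them, came from the Consortium for Functional Glycomics database and were retained only where the protein sequence was available. Z-scores were averaged across arrays of the same protein sequence at different concentrations or buffers and across linkers.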
# [2] = target: GlcNAc(b1-3)Gal(b1-4)GlcNAc(b1-3)GalNAc
# Summary of the method: as §1
# [3] = target: GlcNAc(b1-3)Gal(b1-4)GlcNAc(b1-3)[GlcNAc(b1-3)Gal(b1-4)GlcNAc(b1-3)]GalNAc
# Summary of the method: as §1
# [4] = target: GlcNAc(b1-3)Gal(b1-4)GlcNAc(b1-6)[Gal(b1-3)]GalNAc
# Summary of the method: as §1
# [5] = target: GlcNAc(b1-3)Gal(b1-4)GlcNAc(b1-6)[GlcNAc(b1-3)Gal(b1-3)]GalNAc
# Summary of the method: as §1
# [6] = target: GlcNAc(b1-3)Gal(b1-4)GlcNAc(b1-6)[GlcNAc(b1-3)]Gal(b1-4)GlcNAc
# Summary of the method: as §1
# [7] = target: GlcNAc(b1-3)GalNAc
# Summary of the method: as §1
# [8] = target: GlcNAc(b1-3)Man
# Summary of the method: as §1
# [9] = target: GlcNAc(b1-3)[GlcNAc(b1-4)][GlcNAc(b1-6)]GlcNAc
# Summary of the method: as §1
# [10] = target: GlcNAc(b1-3)[GlcNAc(b1-6)]Gal(b1-4)GlcNAc
# Summary of the method: as §1
# [11] = target: GlcNAc(b1-3)[GlcNAc(b1-6)]GalNAc
# Summary of the method: as §1
# [12] = target: GlcNAc(b1-4)Gal(b1-4)GlcNAc
# Summary of the method: as §1
# [13] = target: GlcNAc(b1-4)GlcNAc
# Summary of the method: as §1
# [14] = target: GlcNAc(b1-4)GlcNAc(b1-4)GlcNAc
# Summary of the method: as §1
# [15] = target: GlcNAc(b1-4)GlcNAc(b1-4)GlcNAc(b1-4)GlcNAc(b1-4)GlcNAc
# Summary of the method: as §1
# [16] = target: GlcNAc(b1-4)GlcNAc(b1-4)GlcNAc(b1-4)GlcNAc(b1-4)GlcNAc(b1-4)GlcNAc
# Summary of the method: as §1
# [17] = target: GlcNAc(b1-4)[GlcNAc(b1-6)]GalNAc
# Summary of the method: as §1
# [18] = target: GlcNAc(b1-6)Gal(b1-4)GlcNAc
# Summary of the method: as §1
# [19] = target: GlcNAc(b1-6)GalNAc
# Summary of the method: as §1
# [20] = target: GlcNAc6S(b1-3)Gal(b1-4)GlcNAc
# Summary of the method: as §1
# [21] = target: Kdn(a2-3)Gal(b1-3)GalNAc
# Summary of the method: as §1
# [22] = target: Kdn(a2-3)Gal(b1-3)GlcNAc
# Summary of the method: as §1
# [23] = target: Kdn(a2-3)Gal(b1-4)Glc
# Summary of the method: as §1
# [24] = target: Kdn(a2-3)Gal(b1-4)GlcNAc
# Summary of the method: as §1
# [25] = target: Kdn(a2-3)Gal(b1-4)[Fuc(a1-3)]GlcNAc
# Summary of the method: as §1
# [26] = target: Kdn(a2-6)Gal(b1-4)GlcNAc
# Summary of the method: as §1
# [27] = target: Man(a1-2)Man(a1-2)Man(a1-3)Man
# Summary of the method: as §1
# [28] = target: Man(a1-2)Man(a1-2)Man(a1-6)[Man(a1-3)]Man
# Summary of the method: as §1
# [29] = target: Man(a1-2)Man(a1-3)Man
# Summary of the method: as §1
# [30] = target: Man(a1-2)Man(a1-3)[Man(a1-2)Man(a1-6)]Man
# Summary of the method: as §1
# [31] = target: Man(a1-2)Man(a1-3)[Man(a1-2)Man(a1-6)]Man(a1-6)[Man(a1-2)Man(a1-2)Man(a1-3)]Man
# Summary of the method: as §1
# [32] = target: Man(a1-2)Man(a1-3)[Man(a1-2)Man(a1-6)]Man(a1-6)[Man(a1-2)Man(a1-2)Man(a1-3)]Man(b1-4)GlcNAc(b1-4)GlcNAc
# Summary of the method: as §1
# [33] = target: Man(a1-2)Man(a1-3)[Man(a1-6)]Man(a1-6)[Man(a1-2)Man(a1-3)]Man(b1-4)GlcNAc(b1-4)GlcNAc
# Summary of the method: as §1
# [34] = target: Man(a1-2)Man(a1-6)[Man(a1-3)]Man(a1-6)[Man(a1-2)Man(a1-2)Man(a1-3)]Man
# Summary of the method: as §1
# [35] = target: Man(a1-2)Man(a1-6)[Man(a1-3)]Man(a1-6)[Man(a1-2)Man(a1-2)Man(a1-3)]Man(b1-4)GlcNAc(b1-4)GlcNAc
# Summary of the method: as §1
# [36] = target: Man(a1-3)[Man(a1-6)]Man
# Summary of the method: as §1
# [37] = target: Man(a1-3)[Man(a1-6)]Man(a1-6)[Man(a1-2)Man(a1-3)]Man(b1-4)GlcNAc(b1-4)GlcNAc
# Summary of the method: as §1
binder,measurement,setting,value
B1,glycan array binding signal (z-score),[1],-0.348
same,glycan array binding signal (z-score),[2],-0.162
same,glycan array binding signal (z-score),[3],-0.346
same,glycan array binding signal (z-score),[4],0.367
same,glycan array binding signal (z-score),[5],0.58
same,glycan array binding signal (z-score),[6],-0.115
same,glycan array binding signal (z-score),[7],-0.292
same,glycan array binding signal (z-score),[8],0.342
same,glycan array binding signal (z-score),[9],0.158
same,glycan array binding signal (z-score),[10],-0.306
same,glycan array binding signal (z-score),[11],-0.4
same,glycan array binding signal (z-score),[12],-0.3
same,glycan array binding signal (z-score),[13],-0.548
same,glycan array binding signal (z-score),[14],-0.187
same,glycan array binding signal (z-score),[15],0.179
same,glycan array binding signal (z-score),[16],-0.199
same,glycan array binding signal (z-score),[17],-0.531
same,glycan array binding signal (z-score),[18],-0.304
same,glycan array binding signal (z-score),[19],-0.366
same,glycan array binding signal (z-score),[20],0.429
same,glycan array binding signal (z-score),[21],-0.487
same,glycan array binding signal (z-score),[22],-0.676
same,glycan array binding signal (z-score),[23],-0.602
same,glycan array binding signal (z-score),[24],-0.683
same,glycan array binding signal (z-score),[25],0.001
same,glycan array binding signal (z-score),[26],-0.626
same,glycan array binding signal (z-score),[27],-0.417
same,glycan array binding signal (z-score),[28],-0.201
same,glycan array binding signal (z-score),[29],-0.357
same,glycan array binding signal (z-score),[30],-0.232
same,glycan array binding signal (z-score),[31],0.268
same,glycan array binding signal (z-score),[32],-0.356
same,glycan array binding signal (z-score),[33],-0.181
same,glycan array binding signal (z-score),[34],-0.681
same,glycan array binding signal (z-score),[35],0.258
same,glycan array binding signal (z-score),[36],1.49
same,glycan array binding signal (z-score),[37],-0.453
